The supplement of paper PMC6531468
The list shows a part of the results. Read counts after selection give these values, which scatter widely. Each score is taken over the longer molecules that contain the sequence shown.

system: IMP3 RRM1-2; assay: 6-mer SELEX enrichment z-score vs GST control; IMP3 is the RNA-binding protein IGF2BP3; higher = more enriched by binding; details: construct: RRM1-2 (1-163); SELEX round: R2
Method: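 SELEX-seq with GST-tagged IMP3 RRM1-2 (Met1-Asn163) and an N40 RNA pool, round 2. 6-mer enrichment z-score normalised to GST SELEX. RNA written as DNA (T = U).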

Sequence of IMP3 RRM1-2 (chain, as listed by the source): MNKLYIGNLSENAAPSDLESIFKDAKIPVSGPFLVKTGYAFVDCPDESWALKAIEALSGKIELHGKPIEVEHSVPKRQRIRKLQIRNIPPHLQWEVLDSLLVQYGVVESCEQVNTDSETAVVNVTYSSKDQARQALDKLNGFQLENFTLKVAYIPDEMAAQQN

Sequence	6-mer SELEX enrichment z-score
AAAGCA	-0.238
TGAACT	-0.789
AAGACG	-1.28
TACTAG	0.129
GCGAAA	-1.32
ATAATG	-0.42
CCTAAG	-0.408
AATAGG	-0.223
CCTTAG	-0.102
CTTTAG	0.216
CCTGGA	-0.661
ATAGCA	0.383
TCTGCC	-0.079
CCAATA	-0.402
CTTTAC	0.061
TCATGG	0.706
GCTATG	0.047
AATACT	-0.332
AATCCG	-0.752
TCAAAC	0.922

Sequence	6-mer SELEX enrichment z-score
TCTAGC	0.225
GATCTC	0.262
ACGAGA	-1.36
GCCTTG	0.066
GCTGAG	-0.135
GACACG	-0.434
GAAACG	-1.88
CGTCGA	0.045
CGTATA	-0.131
AAGAGG	-0.801
AGCCCT	-0.37
GTTACG	0.02
TACTCG	0.152
CTCGAT	0.096
CTTCCC	-0.246
TAATTT	0.137
CTATGC	-0.083
ACTCGC	0.101
CATCAC	3.17
AGCGTT	0.088
